Some of the results follow.
B1: PhoQ; a variant is named by its letters at X, in order, P23837 (parent)
chain: MKKLLRLFFPLSLRVRFLLATAAVVLVLSLAYGMVALIGYSVSFDKTTFRLLRGESNLFYTLAKWENNKLHVELPENIDKQSPTMTLIYDENGQLLWAQRDVPWLMKMIQPDWLKSNGFHEIEADVNDTSLLLSGDHSIQQQLQEVREDDDDAEMTHSVAVNVYPATSRMPKLTIVVVDTIPVELKSSYMVWSWFIYVLSANLLLVIPLLWVAAWWSLRPIEALAKEVRELEEHNRELLNPATTRELTSLVRNLNRLLKSERERYDKYRTTLTDLTHSLKTPLXXLQXXLRSLRSEKMSVSDAEPVMLEQISRISQQIGYYLHRASMRGGTLLSRELHPVAPLLDNLTSALNKVYQRKGVNISLDISPEISFVGEQNDFVEVMGNVLDNACKYCLEFVEISARQTDEHLYIVVEDDGPGIPLSKREVIFDRGQRVDTLRPGQGVGLAVAREITEQYEGKIVAGESMLGGARMEVIFGRQHSAPKDE

Variants of: B1
Test: enrichment ratio after two sorts for PhoP signalling (ratio (wild type AVST 3.29)); higher = more functional
Conditions: with PhoP (E. coli)
Variant DLVM has an enrichment ratio of no more than 0.25.
For FVVV, the enrichment ratio was no more than 0.25.
For IDWI, the enrichment ratio was no more than 0.25.
In the case of DVEH, the enrichment ratio is reported as no more than 0.25.
MCIL showed an enrichment ratio of no more than 0.25.
For DGGQ, the enrichment ratio was no more than 0.25.
EVCH showed an enrichment ratio of no more than 0.25.
In the case of TWVA, the enrichment ratio is reported as no more than 0.25.
PILN gave an enrichment ratio of no more than 0.25.
FHNV gave an enrichment ratio of no more than 0.25.
Variant RCCW has an enrichment ratio of no more than 0.25.
Work on LLDV yielded an enrichment ratio of no more than 0.25.
YRRD was tested, and the enrichment ratio was no more than 0.25.
Variant PYHG has an enrichment ratio of no more than 0.25.
NKWK was tested, and the enrichment ratio was no more than 0.25.
IYCA showed an enrichment ratio of no more than 0.25.
In the case of PQIN, the enrichment ratio is reported as no more than 0.25.
KKIN gave an enrichment ratio of no more than 0.25.
STTI was tested, and the enrichment ratio was 5.62.
PKKY was tested, and the enrichment ratio was no more than 0.25.
With PLLM the enrichment ratio was no more than 0.25.
With MTWN the enrichment ratio was no more than 0.25.
WQIE gave an enrichment ratio of no more than 0.25.
Variant SCWM has an enrichment ratio of no more than 0.25.
In the case of LCMF, the enrichment ratio is reported as no more than 0.25.
KDAG was tested, and the enrichment ratio was no more than 0.25.
In the case of PAMV, the enrichment ratio is reported as no more than 0.25.
Variant NTPR has an enrichment ratio of no more than 0.25.
With PHFC the enrichment ratio was no more than 0.25.
DWKA was tested, and the enrichment ratio was no more than 0.25.
For KHNQ, the enrichment ratio was no more than 0.25.
Variant SSCS has an enrichment ratio of 9.51.
In the case of EDDV, the enrichment ratio is reported as no more than 0.25.
Variant QSML has an enrichment ratio of 3.2.
QLYW showed an enrichment ratio of no more than 0.25.
Work on WLSQ yielded an enrichment ratio of no more than 0.25.
Variant IIPF has an enrichment ratio of no more than 0.25.
IQNT was tested, and the enrichment ratio was no more than 0.25.
FLSP showed an enrichment ratio of no more than 0.25.
With IIIT the enrichment ratio was no more than 0.25.
In the case of MWGV, the enrichment ratio is reported as no more than 0.25.
KPIP gave an enrichment ratio of no more than 0.25.
WALN was tested, and the enrichment ratio was no more than 0.25.
For MWFC, the enrichment ratio was 1.61.
Variant DCNR has an enrichment ratio of no more than 0.25.
Variant QSSE has an enrichment ratio of 1.95.
FAML showed an enrichment ratio of 6.33.
SMFD showed an enrichment ratio of no more than 0.25.
For AKVC, the enrichment ratio was 15.3.
In the case of DEVI, the enrichment ratio is reported as no more than 0.25.
Variant EMQQ has an enrichment ratio of no more than 0.25.
YIVI was tested, and the enrichment ratio was no more than 0.25.
LYWL was tested, and the enrichment ratio was 0.729.
NDHE gave an enrichment ratio of no more than 0.25.
Variant FMRG has an enrichment ratio of 0.252.
In the case of VPTW, the enrichment ratio is reported as no more than 0.25.
Variant NMMI has an enrichment ratio of no more than 0.25.
FMTN gave an enrichment ratio of no more than 0.25.
HMIF gave an enrichment ratio of no more than 0.25.
With PFLL the enrichment ratio was no more than 0.25.
In the case of LLWH, the enrichment ratio is reported as no more than 0.25.
RQLM gave an enrichment ratio of no more than 0.25.
VRVW gave an enrichment ratio of no more than 0.25.
VHDE gave an enrichment ratio of no more than 0.25.
Variant AQGV has an enrichment ratio of no more than 0.25.
With MTIP the enrichment ratio was no more than 0.25.
DFSM showed an enrichment ratio of no more than 0.25.
With NVDT the enrichment ratio was no more than 0.25.
Variant FETG has an enrichment ratio of no more than 0.25.
In the case of HYLA, the enrichment ratio is reported as no more than 0.25.
For MYVV, the enrichment ratio was no more than 0.25.
PAKM showed an enrichment ratio of no more than 0.25.
For TNYF, the enrichment ratio was no more than 0.25.
ALDF was tested, and the enrichment ratio was no more than 0.25.
In the case of WKIN, the enrichment ratio is reported as no more than 0.25.
Work on HEFV yielded an enrichment ratio of no more than 0.25.
NHVV gave an enrichment ratio of no more than 0.25.
With PCGN the enrichment ratio was no more than 0.25.
LPFD gave an enrichment ratio of no more than 0.25.
Variant LNEG has an enrichment ratio of no more than 0.25.
Work on FAFL yielded an enrichment ratio of 0.458.
FACQ was tested, and the enrichment ratio was no more than 0.25.
RPVQ gave an enrichment ratio of no more than 0.25.
For IMFQ, the enrichment ratio was no more than 0.25.
LMDT showed an enrichment ratio of no more than 0.25.
For GWKR, the enrichment ratio was no more than 0.25.
GVRA was tested, and the enrichment ratio was no more than 0.25.
With SQQR the enrichment ratio was no more than 0.25.
For FPHK, the enrichment ratio was no more than 0.25.
EYFD gave an enrichment ratio of no more than 0.25.
FTIY was tested, and the enrichment ratio was no more than 0.25.
For WDAN, the enrichment ratio was no more than 0.25.
AYIH was tested, and the enrichment ratio was no more than 0.25.
Work on GGLD yielded an enrichment ratio of no more than 0.25.
TPWG showed an enrichment ratio of no more than 0.25.
FKPF gave an enrichment ratio of no more than 0.25.
For GHLE, the enrichment ratio was no more than 0.25.
Variant KTYV has an enrichment ratio of no more than 0.25.
With PARG the enrichment ratio was no more than 0.25.
NCSN gave an enrichment ratio of no more than 0.25.
With LPKV the enrichment ratio was no more than 0.25.
With WREP the enrichment ratio was no more than 0.25.
LYTV was tested, and the enrichment ratio was no more than 0.25.
For KYKL, the enrichment ratio was no more than 0.25.
Variant IQTM has an enrichment ratio of no more than 0.25.
With SIGL the enrichment ratio was 5.15.
Work on IKTP yielded an enrichment ratio of no more than 0.25.
IHQR was tested, and the enrichment ratio was no more than 0.25.
With YSAW the enrichment ratio was no more than 0.25.
With RKMC the enrichment ratio was no more than 0.25.
With GMSR the enrichment ratio was no more than 0.25.
Work on WWCR yielded an enrichment ratio of no more than 0.25.
In the case of ETFN, the enrichment ratio is reported as no more than 0.25.
MIPL showed an enrichment ratio of no more than 0.25.
Work on IAKV yielded an enrichment ratio of no more than 0.25.
Work on RWWT yielded an enrichment ratio of no more than 0.25.
In the case of LRCG, the enrichment ratio is reported as no more than 0.25.
CIPI showed an enrichment ratio of no more than 0.25.
Variant AILD has an enrichment ratio of no more than 0.25.
KDQE gave an enrichment ratio of no more than 0.25.
In the case of NNDY, the enrichment ratio is reported as no more than 0.25.
For VQTM, the enrichment ratio was no more than 0.25.
In the case of LFAE, the enrichment ratio is reported as no more than 0.25.
For LLYK, the enrichment ratio was no more than 0.25.
SRLM showed an enrichment ratio of 8.53.
SLPE gave an enrichment ratio of no more than 0.25.
Work on NYHA yielded an enrichment ratio of no more than 0.25.
With HIAF the enrichment ratio was no more than 0.25.
Variant PVQC has an enrichment ratio of no more than 0.25.
In the case of WGPD, the enrichment ratio is reported as no more than 0.25.
In the case of FAII, the enrichment ratio is reported as no more than 0.25.
For GCFP, the enrichment ratio was no more than 0.25.
In the case of AYTH, the enrichment ratio is reported as no more than 0.25.
AHYW gave an enrichment ratio of no more than 0.25.
Variant IGNW has an enrichment ratio of no more than 0.25.
YCHG was tested, and the enrichment ratio was no more than 0.25.
Work on GLSY yielded an enrichment ratio of no more than 0.25.
DKSN showed an enrichment ratio of no more than 0.25.
For YEIS, the enrichment ratio was 0.338.
Variant TGSV has an enrichment ratio of 17.2.
In the case of GHGL, the enrichment ratio is reported as no more than 0.25.
HWPD showed an enrichment ratio of no more than 0.25.
Work on KEAL yielded an enrichment ratio of no more than 0.25.
With FLHQ the enrichment ratio was no more than 0.25.
MANP showed an enrichment ratio of no more than 0.25.
Work on HKDT yielded an enrichment ratio of no more than 0.25.
In the case of NPCD, the enrichment ratio is reported as no more than 0.25.
For HDLN, the enrichment ratio was no more than 0.25.
For DFRD, the enrichment ratio was no more than 0.25.
Work on KHIQ yielded an enrichment ratio of no more than 0.25.
Work on MNQW yielded an enrichment ratio of no more than 0.25.
With LVCD the enrichment ratio was no more than 0.25.
LISG showed an enrichment ratio of no more than 0.25.

From a collection of fitness landscapes (doi:10.1126/science.1257360)
